PubChem BioAssay AID1030 (National Center for Advancing Translational Sciences (NCATS), 2008)
Out of some 220,000 compounds screened, about 16,000 (7.3%) were called active. Inconclusive means that the source gave no clear call. Such entries were picked first, then a sample of the others. Calls follow the shape of the dose curve; as a rule, active = well fitted inhibition curve with a large enough effect (not every such curve was filed as active); inconclusive = small, poorly fitted or top-dose-only effect, or another doubt; inactive = no such curve, though single readings can be large or run the other way. Potencies of inconclusive entries are left out as doubtful fits.

target: Aldehyde dehydrogenase 1A1 (Homo sapiens) (UniProt P00352); experiment: qHTS Assay for Inhibitors of Aldehyde Dehydrogenase 1 (ALDH1A1); conditions: Purified ALDH1A1, NADH fluorescence, propionaldehyde substrate; series mostly up to 75.3 µM
Potency is read from the fitted curve at half-maximal effect; tags tell the direction and shape of the fitted curve.

Chain of UniProt P00352 (P00352 whole entry, looked up): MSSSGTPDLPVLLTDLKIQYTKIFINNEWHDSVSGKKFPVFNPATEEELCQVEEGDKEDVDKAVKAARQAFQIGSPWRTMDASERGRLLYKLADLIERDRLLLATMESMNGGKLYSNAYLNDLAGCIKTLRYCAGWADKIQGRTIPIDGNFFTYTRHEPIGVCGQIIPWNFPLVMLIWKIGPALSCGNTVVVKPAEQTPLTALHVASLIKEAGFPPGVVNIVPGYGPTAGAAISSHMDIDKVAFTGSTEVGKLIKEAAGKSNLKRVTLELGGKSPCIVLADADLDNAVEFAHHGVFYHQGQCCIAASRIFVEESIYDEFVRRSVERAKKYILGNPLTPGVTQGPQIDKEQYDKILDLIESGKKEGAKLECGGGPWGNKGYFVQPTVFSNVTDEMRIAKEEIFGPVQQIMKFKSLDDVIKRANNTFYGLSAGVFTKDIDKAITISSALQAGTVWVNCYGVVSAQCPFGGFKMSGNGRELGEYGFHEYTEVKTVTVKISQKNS

SMILES	Potency
O=C(CN1C(=O)CCC1=O)Nc1ccc(Br)cc1	active: 2.51 µM
CC(C)C(=O)c1cc2c(cc1NC(=O)Nc1cccc3ccccc13)OCCO2	inconclusive [inhibitor, single point]
Cc1cc2cc(C(c3nnnn3Cc3ccco3)N3CCCCC3)c(=O)[nH]c2cc1C (configuration not stated)	inconclusive [inhibitor, full curve]
COc1ccccc1C(=O)OCCNC(=O)Cn1cnc2c1c(=O)n(C)c(=O)n2C	inactive
COc1ccc(N2C(=O)C(Cl)=C(Nc3ccc(OC)cc3OC)C2=O)cc1	inactive
CC(C)(C)SCCNC(=O)CSCc1ccc([N+](=O)[O-])cc1	inconclusive [inhibitor, single point]
COc1ccc2oc(C(=O)c3ccccc3)c(NC(=O)CN3CCN(C)CC3)c2c1	inconclusive [inhibitor, single point]
CC(C)Cn1c(/C=C/c2ccccc2)nc2ccccc21	inconclusive [inhibitor, partial curve]
CCCCCC1CC(CC(=O)NC(=S)Nc2ccccc2Cl)C(=O)O1 (configuration not stated)	inconclusive [inhibitor, single point]
O=C(c1ccccc1)N1CCN(C(=O)c2ccccc2)CC1	inactive
Cc1oc2cc(O)ccc2c(=O)c1-c1ccccc1	inconclusive [inhibitor, partial curve]
N#Cc1c(-n2cccc2)cccc1-n1cccc1	inconclusive [inhibitor, single point]
c1cncc(-c2nc(NCc3ccco3)c3ccccc3n2)c1	inconclusive [inhibitor, single point]
Cc1cccc(C(=O)N(NC(=O)Oc2ccccc2)C(C)(C)C)c1	inactive
Cn1c(=O)cc(OCC(=O)NCCCN2CCN(Cc3ccccc3)CC2)c2ccccc21	inconclusive [inhibitor, single point]
O=C(O)c1cccc(CN2C(=O)CSC2=O)c1	inactive
c1csc(-c2nnc(NC3CCCCC3)c3ccccc23)c1	inconclusive [inhibitor, single point]
CCn1cc(SCC(=O)N2CCc3ccccc32)c2ccccc21	inconclusive [inhibitor, single point]
O=C1CCCC/C1=C\Nc1ccccc1C(=O)O	inconclusive [inhibitor, partial curve]
CC1CN(c2nc3ccccc3nc2C(C#N)C(=O)NC2CCCCC2)CC(C)O1 (configuration not stated)	inactive
N#Cc1cc([N+](=O)[O-])ccc1N1CCCC1	inconclusive [inhibitor, single point]
CCOC(=O)c1ccc(NC(=O)Cn2nnc(-c3ccc(F)cc3)n2)cc1	inactive
O=c1[nH]ccc2c([N+](=O)[O-])cccc12	inconclusive [inhibitor, single point]
CN1C(=O)/C(=C/c2ccco2)SC1=Nc1cccc(C(=O)O)c1	inconclusive [inhibitor, single point]

SMILES	Potency
OC1CCN(c2cc(-c3ccccc3)nc3cc(-c4ccc(F)cc4)nn23)CC1	inconclusive [inhibitor, partial curve]
COc1ccc(OCCCC(=O)NCCc2nc3ccccc3[nH]2)cc1	inconclusive [inhibitor, partial curve]
N#C/C(Cn1c[n+](NC(=O)Nc2ccccc2)cn1)=N/O	active: 31.6 µM
CCCCN1C(=O)/C(=c2\sc3nc(=O)c(-c4ccccc4)nn3c2=O)c2ccccc21	active: 4.47 µM
COc1ccc(-c2cc(C(F)(F)F)nc(-n3cc(Cl)cn3)n2)cc1	inconclusive [inhibitor, partial curve]
C[C@@]12C=CC(=O)C=C1CC[C@@H]1[C@@H]2[C@H](O)C[C@]2(C)[C@@H]1CC[C@]2(O)C(=O)CO	inactive
CC(C)Oc1ccccc1OCCN(C)C	inconclusive [inhibitor, partial curve]
COc1ccc(-c2cc(C(=O)NCC3CCCO3)c3cc(C)ccc3n2)cc1 (configuration not stated)	inconclusive [inhibitor, partial curve]
O=C(Nc1ccc(Cl)cc1)N1CCC(c2nc(-c3ccccc3Cl)no2)CC1	inconclusive [inhibitor, partial curve]
O=C(/C=C/c1ccc2c(c1)OCO2)c1ccccc1	inactive
C=CCn1c(O)c(N=NC(=O)OC(C)(C)C)c2ccccc21	inconclusive [inhibitor, partial curve]
CN[C@@H]1[C@H](O)[C@H](NC)[C@H]2O[C@@]3(O)C(=O)C[C@@H](C)O[C@H]3O[C@@H]2[C@H]1O	inactive
C1CCN2C[C@H]3C[C@H](CN4CCCCC34)C2C1 (some centres not stated)	inactive
CN(CC(=O)Nc1ccc(F)cc1)C(=O)COc1ccc([N+](=O)[O-])cc1Cl	inactive
c1ccc(COC2CCCN(Cc3nc(-c4cccs4)no3)C2)nc1 (configuration not stated)	inconclusive [inhibitor, single point]
N#C/C(=C/c1ccc(-c2ccc(Br)cc2)o1)C(=O)NC1CCCCC1	active: 1.12 µM
CC(C)OC(=O)c1cccc(NC(=O)CSc2nnc(N)s2)c1	inconclusive [inhibitor, single point]
CC(=O)Nc1ccc(N2C(=O)CC(Sc3nc4ccccc4s3)C2=O)cc1 (configuration not stated)	active: 0.708 µM
Cc1cc([N+](=O)[O-])c2[nH]c(C(=O)N/N=C/c3ccccc3C(=O)O)c(-c3ccccc3)c2c1	active: 1.41 µM
Cc1ccc(/C=C(\C#N)C(=O)NCc2ccco2)o1	inconclusive [inhibitor, single point]
O=[N+]([O-])c1c(Nc2ccccc2)ccc2nonc12	inactive
O=C(c1cnccn1)N1CCC2(CCCN(Cc3ccncc3)C2)CC1	inactive
CCCOc1ncnc2c1[nH]c1ccc(C)cc12	inconclusive [inhibitor, single point]
